About 120 (0.25%) of roughly 48,000 compounds were called active. Another 4% or so got no clear call; they are omitted. Calls come from the whole dose curve; as a rule, active = well fitted activation curve with a large enough effect; inconclusive = small, poorly fitted or top-dose-only effect, or another doubt; inactive = no such curve, though single readings can be large or run the other way. The list shows a part of the results.
Assay: Primary qHTS for Identification of Small Molecule Activators of Huntingtin-Antisense Promoter Activity; note: nearly all actives have a fitted effect of over 55% in size
Settings: HEK293 HTT-AS promoter firefly luciferase reporter (activity 0% = vehicle and -100% = no light), 24 h; series mostly up to 57.5 µM; activity change, positive = activation: at the top concentration
How it was run: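 HEK293 Fluc reporter, 2,500 cells/well, 24 h pre-culture; cpds up to 57.5 uM final, 24 h 37 degrees C; Dual-Glo, 10 min RT; normalized vehicle = 0%, zero RLU = -100%.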

Activity change, positive = activation, inactive:
CCCCN1C(=O)C(NC(=O)c2ccc(C(C)(C)C)cc2)(C(F)(F)F)C(C(=O)OC)=C1C (configuration not stated) -21.1%
Cc1cc(O)c(C(c2ccc(F)cc2)N2CCN(c3ccccc3)CC2)c(=O)n1Cc1ccco1 (configuration not stated) 8.37%
CS(=O)(=O)c1ccc(-c2cnc(N)c(C(=O)Nc3ccccc3)n2)cc1 -17.6%
CC(NC(=O)c1cccc(Nc2nc3ccccc3n3nnnc23)c1)c1ccccc1 (configuration not stated) -11.2%
O=C(CSc1nc2c(c(=O)[nH]1)CCC2)Nc1cccc(O)c1 1.27%
CCn1c(=O)c2sccc2n2c(CCCC(=O)Nc3ccc(C)cc3)nnc12 1.44%
COc1cc(NC(=O)c2c(C)nn(-c3ccc(F)cc3)c2-n2cccc2)cc(OC)c1 -1.37%
COc1ccc(-n2nnnc2C2CCN(S(=O)(=O)c3cc(Cl)ccc3OC)CC2)cc1 -36.8%
Cc1ccc(N2CCN(c3ncnc4onc(-c5ccc(F)cc5)c34)CC2)c(C)c1 -12.5%
Cc1ccc(S(=O)(=O)NCCc2nnc3ccc(SCc4cccc(F)c4)nn23)cc1 -17.1%
COc1cc(-c2cc3n(C)c(C)c(CCC(=O)Nc4ccc(F)cc4)c(=O)n3n2)cc(OC)c1OC -7.63%
CCN1CCCC(OC(=O)C(c2ccccc2)c2ccccc2)C1 (configuration not stated) -14.5%
COc1ccc(Cn2c(=O)c3oc4ccccc4c3n(Cc3ccccc3)c2=O)cc1 0.184%
CCOC(=O)c1[nH]c(C)c(CCC(=O)NCc2cccc(Cl)c2)c1C -11.1%
O=C(CSc1c2c(nc3ccccc13)CCC2)Nc1ccc(F)cc1F -5.11%
Nc1ccc(C(=O)O)cc1 2.61%
Cc1ccnc(NS(=O)(=O)c2ccc(NC(=O)Nc3ccc(S(=O)(=O)Nc4nccc(C)n4)cc3)cc2)n1 19.1%
COC(=O)c1ccc([C@@H]2Nc3c(cccc3C(F)(F)F)[C@@H]3C=CC[C@@H]32)cc1 -7.85%
Cc1ccccc1CN1C(=O)c2ccccc2Sc2ccc(C(=O)N3CCOCC3)cc21 -14.8%
COc1ccccc1-c1c(C(F)(F)F)oc2c(CN3CCCCC3C)c(O)ccc2c1=O (configuration not stated) -8.62%
CCN1C(=O)c2ccccc2S(=O)c2ccc(C(=O)N3CCN(c4ccc(F)cc4)CC3)cc21 (configuration not stated) -29.6%
Cc1cccc(-c2nc(-c3ccc4c(c3)[nH]c(=O)n4C)no2)c1 13.6%
O=C(Nc1ccc2oc(-c3cccc4c(Br)cccc34)nc2c1)c1ccc(Br)cc1 -4.82%
Cc1cc(F)ccc1NC(=O)CCS(=O)(=O)c1cccc2nsnc12 -8.3%
CCCN(CCC)CCCNC(=O)c1cc2c(-c3ccc(Cl)cc3)nn(C)c2s1 -12.6%
Cc1cccc(NC(=O)CSc2nc3c(oc4ccccc43)c(=O)n2-c2ccccc2)c1C -17.4%
Cc1ccc(S(=O)(=O)N2CCC(C(=O)Nc3cc(C)ccc3C)CC2)cc1 -9.88%
O=C(CC(c1cccs1)N1Cc2ccccc2C1=O)Nc1ccccc1F (configuration not stated) -30.3%
Cc1ccc(NC(=O)CN2C(=O)CSc3ccc(S(=O)(=O)N(C)C)cc32)cc1C -4.06%
COC(=O)c1cc2occc2n1Cc1ccc(F)cc1Cl -5.2%
Cc1ccc(CSC2=Nc3ccccc3C3=NC(CCC(=O)NCCc4ccccc4)C(=O)N23)cc1 (configuration not stated) -6.3%
Cc1ccc(-c2nn(CCC(=O)Nc3ccc(Cl)c(Cl)c3)c(=O)c3ccccc23)cc1 -29.1%
COc1ccc(-c2nc(S(=O)(=O)c3ccc(Cl)cc3)c(N3CCCCCC3)o2)cc1 -9.07%
Cc1ccc(C(=O)NCCSc2c(C)[nH]c3ccccc23)cc1C -33.1%
CCOc1cc(C2C(C(N)=O)=C(C)Nc3ncnn32)cc(Br)c1O (configuration not stated) -10.5%
Nc1nc2nc(-c3ccc(Cl)cc3)cc(C(F)(F)F)n2n1 -5.7%
Cc1ccc(NC(=O)CSc2nc3c(c(=O)[nH]2)CN(Cc2ccccc2)CC3)cc1Cl 0%
CC(=O)N1c2ccccc2C(=O)C1N1CCN(c2cccc(C)c2C)CC1 (configuration not stated) -11.2%
Nc1nonc1-c1nc2ccccc2n1Cc1ccc(Br)cc1 -15.5%
CC(C)(Oc1ccc(Cl)cc1)C(=O)Nc1cccc(-c2cn3cccnc3n2)c1 -1.87%
CC(CNC(=O)c1sc2ncccc2c1-n1cccc1)c1ccccc1 (configuration not stated) -18%
Cc1ccc(NC(=O)C2=CC(c3cccs3)=NS(=O)(=O)N2C)cc1 -16.8%
COc1ccccc1-c1nnc(SCC(=O)c2ccc(F)cc2)n1-c1ccccc1 -12.5%
CCc1ccc(CNC(=O)CN2C(=O)CCn3nc(-c4cn(C)c5ccccc45)cc32)cc1 -15.2%
O=C(Nc1cccc(Cl)c1)C1CCCN1S(=O)(=O)c1cccc2cccnc12 (configuration not stated) -25.8%
Cn1nnnc1SCCNCc1ccc(OCc2ccc(Cl)cc2)cc1 -2.41%
CC(C)(C)c1nc(-c2cccc(NS(=O)(=O)c3c(F)cccc3F)c2F)c(-c2ccnc(N)n2)s1 -29.6%
Cc1cc(Cl)ccc1OCc1cc(=O)n2c3c(sc2n1)CCCC3 -3.53%
Cc1ccc(CN2C(=O)c3ccccc3Sc3ccc(C(=O)NCCCN4CCOCC4)cc32)cc1 -34.6%
Cc1oc(-c2cccc(Cl)c2)nc1CN1CCC(C(=O)NCCc2ccc(Cl)cc2)CC1 -14.9%
COc1cccc(OCC(=O)Nc2nnc3n2CCS3)c1 -3.45%
CCc1ccc(C2=C(C)C(N3CCC(C(=O)NCCc4ccco4)CC3)=NS2(=O)=O)cc1 -17.1%
COc1ccc(C(=O)Nc2ccc(N3CCOCC3)c(C(F)(F)F)c2)cc1OC -37%
Cc1cccc(NC(=O)CSc2nc(=O)n(Cc3cccnc3)c3c2CCC3)c1C -12.2%
COc1cccc2c1CCCC2CCCN1CCN(C2CCCCC2)CC1 (configuration not stated) -22.6%
Cc1cc(OCC(=O)NCC2(N3CCOCC3)CCCCC2)ccc1Cl -25.3%
CCc1cccc(NC(=O)C(CC(C)C)NS(=O)(=O)c2ccc3c(c2)oc(=O)n3C)c1 (configuration not stated) -35.2%
CCC(=O)N1CCc2cc(CNC(=O)Nc3cc(Cl)ccc3C(=O)OC)ccc21 -9.58%
COc1ccccc1CN1CCC(CNC(=O)c2cnn(-c3ccc(C)c(C)c3)c2C2CCN(C(=O)OC(C)(C)C)CC2)CC1 -23.5%
CCCN(CCC)CCNC(=O)c1cc(-c2ccc(Br)s2)nc2ccccc12 -22.5%
Brc1ccc2nc(-c3ccccc3)c(Nc3ccc4c(c3)OCO4)n2c1 -2.48%
COc1ccccc1NC(=O)c1cc(C2CC2)nc2c1c(C)nn2-c1ccc(C)cc1 -12.2%
